Laboratory results: PubChem BioAssay AID488969 (Vanderbilt High Throughput Screening Facility, 2010)
Over roughly 110,000 compounds, “z-score” has its median near -0.1; the highest 2% begin near 2. The list shows a part of the results.

target: Metabotropic glutamate receptor 8 (Rattus norvegicus) (UniProt P70579); assay: rat mGluR8 modulators via GIRK flux, primary screen, cell-based, thallium flux, HTS (AID 488969); conditions: HEK293 rat mGluR8, GIRK (G protein-gated inwardly rectifying potassium channel) thallium flux, FluoZin2; at 10 µM; stronger effect = higher value; submaximal glutamate (EC20) added with thallium
UniProt P70579, sequence (P70579 whole entry, looked up): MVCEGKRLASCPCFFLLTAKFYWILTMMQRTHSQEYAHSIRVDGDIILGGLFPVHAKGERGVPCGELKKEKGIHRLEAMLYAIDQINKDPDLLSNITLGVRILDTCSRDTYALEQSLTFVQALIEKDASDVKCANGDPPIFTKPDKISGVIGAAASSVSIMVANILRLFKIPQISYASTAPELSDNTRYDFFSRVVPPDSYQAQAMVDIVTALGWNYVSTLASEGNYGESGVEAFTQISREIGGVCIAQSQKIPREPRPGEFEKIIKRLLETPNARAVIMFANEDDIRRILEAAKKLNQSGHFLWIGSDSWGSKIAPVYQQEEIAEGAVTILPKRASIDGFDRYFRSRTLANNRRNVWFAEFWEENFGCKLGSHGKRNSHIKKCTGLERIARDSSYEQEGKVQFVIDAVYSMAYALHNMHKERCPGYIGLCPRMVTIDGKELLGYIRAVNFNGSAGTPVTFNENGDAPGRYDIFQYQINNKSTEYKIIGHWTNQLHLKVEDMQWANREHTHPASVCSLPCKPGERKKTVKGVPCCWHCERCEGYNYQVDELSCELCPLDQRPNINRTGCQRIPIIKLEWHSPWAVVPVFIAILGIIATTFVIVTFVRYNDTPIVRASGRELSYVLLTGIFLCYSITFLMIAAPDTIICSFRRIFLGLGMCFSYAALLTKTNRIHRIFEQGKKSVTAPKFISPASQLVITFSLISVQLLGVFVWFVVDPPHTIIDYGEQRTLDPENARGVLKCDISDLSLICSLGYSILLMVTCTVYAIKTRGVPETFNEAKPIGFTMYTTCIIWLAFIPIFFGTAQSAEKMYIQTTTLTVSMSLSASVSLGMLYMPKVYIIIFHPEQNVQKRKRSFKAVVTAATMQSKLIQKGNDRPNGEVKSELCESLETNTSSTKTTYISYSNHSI

SMILES	z-score
COc1ccc(NC(=O)Cn2nc(C(F)(F)F)c3c2CCCC3)cc1OC	0.0715
COc1ccccc1NC(=O)CCSc1nnnn1C	1.32
CN(C)S(=O)(=O)N(CC(=O)Nc1ccccc1)c1ccccc1	0.311
OC1C=CSc2nc3ccccc3n21 (centres undefined)	-0.0235
Cc1nnc(SCC(=O)Nc2nc(C(C)(C)C)cs2)s1	-0.16
CCOc1ccc(N(CC(=O)NCc2cccc(OC)c2)S(=O)(=O)c2c(C)noc2C)cc1	-0.132
CCc1ccc(NC(=O)C2CC=CCC2C(=O)O)cc1 (centres undefined)	1.44
O=C(Cn1cc2c(n1)CCCC2)NCCCN1CCN(c2ccccc2F)CC1	-0.167
COc1ccc(Nc2nnc(Cc3ccccc3)c(=O)[nH]2)c(OC)c1	1.92
COc1ccc(S(=O)(=O)N(CC(=O)NC2CC2)c2ccc(C)cc2)cc1OC	-0.013
CNC(=S)NNC(=O)Cc1ccc(OC)c(OC)c1	-0.464
C=CCSc1nc2ccccc2c(=O)[nH]1	-0.169
CC(CN1CCN(C)CC1)OC(=O)c1ccc(Cl)cc1 (centres undefined)	1.05
Nc1ncc(Br)cc1S(=O)(=O)NCCC(=O)N1CCN(c2ncccn2)CC1	-0.173
CCOc1ccc(N2C(=O)CC(n3nc(C)cc3C)C2=O)cc1 (centres undefined)	0.0925
CCOC(=O)c1ccc(NC(=O)NCc2ccncc2)cc1	-0.0612
COc1ccccc1NC(=O)COc1ccccc1C(=O)c1cnn(-c2ccccc2)c1	-0.425
COCCNC(=O)Nc1ccc2c(c1)N(C)C(=O)CS2	-0.0391
COc1ccccc1CNCc1ccc(OC)c(OC)c1OC	2.07
Cc1ccc(C(C)C)c(OCc2nc(-c3nonc3N)no2)c1	0.353
Cc1c(Cl)cccc1NC(=O)CCN1CCCCCC1	0.221
COc1ccc(C(=O)Cc2cc(OC)c(OC)cc2[N+](=O)[O-])cc1	0.0666
COc1ccc(N=C2S/C(=C\c3ccc(C)o3)C(=O)N2CC(C)C)cc1	-0.143

SMILES	z-score
O=c1c2cnn(-c3ccccc3Cl)c2ncn1Cc1cccnc1	-0.445
Cn1c(NCCCO)nc2c1c(=O)n(Cc1ccccc1F)c(=O)n2C	-0.16
C/C(=C\c1ccccc1)CN1CCN(c2ccccc2F)CC1	0.326
COc1cc(Cn2c(-c3nonc3N)nc3ccccc32)ccc1C	-0.0177
COc1ccc(C(=O)NC(=S)Nc2ccccc2N2CCCCC2)cc1[N+](=O)[O-]	0.366
COC(=O)C1CCN(C(=O)CSc2nnc(-c3ccncc3)o2)CC1	-0.184
O=C(NCCCCCCNC(=O)NCc1ccco1)NCc1ccco1	0.295
CC(Oc1ccc(Cl)cc1Cl)C(=O)Nn1cnnc1 (centres undefined)	1.17
O=C(CNc1ccccc1)N/N=C/c1ccc([N+](=O)[O-])cc1	-0.176
c1ccc2c(c1)[nH]c1c(N3CCN(C4CCCCC4)CC3)ncnc12	-0.385
Cc1ccc(NC(=O)C2CCCO2)cc1[N+](=O)[O-] (centres undefined)	-0.12
COc1ccc(OC)c(S(=O)(=O)N2CCC(C(=O)N3CCc4ccccc4C3)CC2)c1	0.145
O=C(COC(=O)c1c(Cl)cccc1Cl)Nc1ccccc1Br	-1.12
Cc1nc(NC(C)c2ccccc2)c2oc3ccccc3c2n1 (centres undefined)	-0.398
CC(C(=O)NCc1ccccn1)N1C(=O)c2ccccc2C1=O (centres undefined)	0.197
Cc1ccccc1C(=O)NC(=S)NCC(=O)c1ccccc1	-0.0957
O=C(NC1CCCC1)c1c[nH]c2ccc(F)cc2c1=O	0.0974
O=S(=O)(NCC1CCCO1)c1ccc(S(=O)(=O)N(Cc2ccccc2F)C2CCCCC2)cc1 (centres undefined)	-0.337
CC(C)OC(=O)CSc1nc(-c2ccc(F)cc2)nc2ccc(F)cc12	-0.284
CCOC(=O)c1c(C)n(C)c2ccc(OC(=O)c3ccco3)cc12	-0.000103
Cc1cccnc1NC(=O)C1c2ccccc2Oc2ccccc21	-0.223
CCC(C(=O)NC1CCCC1)N(C(=O)Cn1nnc(-c2cccs2)n1)c1cnc2ccccc2c1 (centres undefined)	-0.032
COc1ccccc1N(CC(=O)NC(C)(C)C)C(=O)Cn1nnc(-c2ccc(C)o2)n1	-0.399

SMILES	z-score
O=C1OCc2ccc(NC(=O)C3CCCCC3)cc21	-0.143
N#CCCn1cc(/C=N/NC(=O)c2ccncc2)c(-c2ccccc2)n1	-0.132
CCOC(=O)CN(c1ccccn1)S(=O)(=O)c1ccccc1	-0.0819
Nc1cc(=O)[nH]c(SCc2nnc(-c3ccccc3)o2)n1	-0.00413
CCC(=O)n1nc(-c2ccccc2)nc1NCc1ccccc1	-0.0763
CC(OC(=O)CNC(=O)C12CC3CC(CC(C3)C1)C2)C(=O)Nc1ncc(Cl)cc1Cl (centres undefined)	-0.644
COCC(=O)Nc1ccc(OCc2ccccc2)cc1	-0.276
COC(=O)c1ccc(Cn2nc(C(F)(F)F)cc2C)cc1	-0.0701
CCOc1ccccc1C1CC(c2ccc(Br)cc2)Nc2nc(N)nn21 (centres undefined)	0.096
CCC1CCC2(CC1)NNC(=S)NN2	-0.17
O=C1CC(=O)N(c2ccccc2)N1c1ccccc1	-0.107
CC(C)CN(C(=O)c1cc2ccccc2o1)c1c(N)n(CC(C)C)c(=O)[nH]c1=O	-0.409
COC(=O)c1c(NC(=O)CN2CCN(S(=O)(=O)c3ccccc3[N+](=O)[O-])CC2)sc2c1CCC(C)C2 (centres undefined)	-0.183
Cc1cccc(C2NC(=O)c3c(sc(C)c3C)N2)c1O (centres undefined)	0.00148
Cc1ccc(NC(=O)C(C)N2C(=O)C3CC=C(Cl)CC3C2=O)cc1 (centres undefined)	-0.206
COc1ccc2nc(SCC(=O)Nc3ccc(S(=O)(=O)N4CCCC4)cc3)c(C#N)cc2c1	0.0728
CC1CC(C)CN(C(=O)c2ccc(N3CC4CC(C3)c3cccc(=O)n3C4)c([N+](=O)[O-])c2)C1 (centres undefined)	-1.22
Cc1ccnc2nc(C(=O)NCc3cccs3)nn12	0.416
Cc1cccc(CN2CCN(CC(=O)O)C2=O)c1	1.19
Cc1nn(C(C)(C)C)c(OC(=O)C2CCCC2)c1S(=O)(=O)c1ccccc1	-0.148
CC(C)C(=O)N1c2ccccc2NC2=C(C(=O)CCC2)C1c1ccc(N(C)C)cc1 (centres undefined)	-0.528
N#C/C(=C(/O)CSc1ccccc1C(=O)O)c1nc2ccccc2s1	-0.325
CN1C(=O)/C(=C2\SC(N)=NC2=O)c2ccccc21	0.239

SMILES	z-score
Cc1ccc(S(=O)(=O)NNC(=O)C2COc3ccccc3O2)cc1 (centres undefined)	0.14
CC(C)=CC(=O)Nc1ccccc1Br	-0.129
Cc1cccc2c1OCC/C2=N\NC(=O)COc1ccccc1Cl	0.077
CN(C)Cc1ccccc1Sc1ccc(O)cc1O	0.374
O=C(CSc1ncnc2nc[nH]c12)c1ccc2ccccc2c1	-0.00847
O=C(NCCc1ccccc1)C1CCCN(S(=O)(=O)c2cccnc2)C1 (centres undefined)	0.0248
O=C(CSc1ccc2ccccc2n1)Nc1nsc(-c2ccc(Cl)cc2)n1	0.032
O=C(CCN1CCc2ccccc2C(c2ccccc2)C1)c1ccc2c(c1)OCCO2 (centres undefined)	-0.639
C=C1CSc2nc(=O)c3c(C)c(C)sc3n21	-1.54
CCn1nc(C)c(/C=N/NC(=O)c2c[nH]c3ccccc23)c1C	-0.197
COc1ccc2ccccc2c1C1CC(=O)N2CN(C)CSC2=C1C#N (centres undefined)	0.256
O=C(NCc1ccc2c(c1)OCO2)C(c1ccco1)N(C(=O)c1csnn1)c1ccccc1 (centres undefined)	-0.0929
CCOC(=O)CN(C(=O)CSc1nnc(CNc2ccc(F)cc2)n1C)c1ccccc1	-0.346
O=C(/C=C/c1ccco1)NC(=S)Nc1cc(C(F)(F)F)ccc1N1CCOCC1	0.575
C=CCN(CC=C)C(=O)C1CCC(C(=O)N(CC=C)CC=C)CC1 (centres undefined)	0.388
COC(=O)c1sccc1NC(=S)N1CCCCC1C (centres undefined)	0.028
CCC(C)(C)NC(=O)CN(C(=O)c1snc(C(N)=O)c1N)c1ccc2c(c1)OCO2	-0.0132
CSc1nc(-c2ccc(Cl)cc2)nn1S(=O)(=O)c1ccc(Cl)cc1	-0.033
COc1ccc(NC(=S)NNC(=O)Cn2nc(C(F)F)cc2C(F)F)cc1	-0.154
CCOc1ccc(NC(C)c2cc(Cl)ccc2O)cc1 (centres undefined)	-0.419
Cc1ccc(SCC(=O)N2CC(C)OC(C)C2)cc1 (centres undefined)	0.158
Clc1ccc(CSc2nnc([C@@H]3CCCN3)o2)cc1Cl	0.393
CCOC(=O)c1ccc2c(c1)sc(=NC(=O)c1ccco1)n2CCOC	-0.0675

SMILES	z-score
N#CC1=C(N)Nc2ncnn2C1c1ccccc1 (centres undefined)	-0.33
O=c1cc(O)c2sc(Nc3ccc(F)cc3)nc2[nH]1	-0.112
CCN(CC)c1ccc(C=Nc2ccccc2C)c(O)c1	0.0072
Oc1c(Br)cc(Br)cc1/C=N/N1CCN(Cc2ccccc2)CC1	0.684
COc1ccc(C(=O)/C=C/Nc2ccc([N+](=O)[O-])cc2C)cc1OC	-0.239
Cc1cccc(NC(=O)CN2C(=O)N/C(=C/c3ccc(C)s3)C2=O)c1	-0.345
CCCCC(c1nnnn1CCOC)N1CCN(Cc2ccccc2)CC1 (centres undefined)	-0.0652
COc1ccccc1OCc1ccc(C(=O)N2CCN(C(=O)c3ccco3)CC2)cc1	0.733
CC(C)NC(=O)COC(=O)c1cc(F)c(F)cc1Cl	-0.412
CCCOc1ccccc1C(=O)N(Cc1ccco1)C1CCS(=O)(=O)C1 (centres undefined)	-0.441
COc1ccc(NC(=O)Cc2c(SC)c3ccccc3n2Cc2ccccc2)cc1	-0.073
CCCCCc1ccc(S(=O)(=O)NCCc2ccncc2)cc1	0.483
COC(=O)CSc1nnc(-c2ccco2)n1-c1ccc(C)cc1	0.151
O=S(CC(O)COCc1ccc(Cl)cc1)c1ccccn1 (centres undefined)	0.29
CCOC(=O)c1oc2ccccc2c1CSc1nnnn1-c1ccc(C)cc1	-0.389
O=C1c2ccccc2C(Nc2cccnc2)N1Cc1ccccc1 (centres undefined)	-0.0395
Cc1ccc2c(c1)nnn2C1CCN(C(=O)NC23CC4CC(CC(C4)C2)C3)CC1	-0.32
CCOC(=O)c1c(NC(=S)Nc2ccccc2)sc2c1CC(C)(C)SC2	-0.0674
Cn1c(=O)c2nc(Cl)n(Cc3ccc(Cl)cc3Cl)c2n(C)c1=O	-1.06
Cc1ccc2oc(=O)c3cc(C(=O)NCc4ccco4)sc3c2c1	-0.267
CSc1nc2c(c(-c3ccc(O)cc3)c1C#N)CCC2	-0.648
Cc1cccc(C)c1NC(=S)NN1CCN(C)CC1	0.3
